Source: the supplement of paper PMC3334620
The full ranking holds about 33,000 sequences; the median of “E-score (-0.5 to 0.5)” is about -0.01, and the highest 2% start at about 0.26. Some of the results follow.

Biological target: Ste12 (UniProt P13574)
Experiment: PBM E-score (8-mer binding enrichment) (E-score (-0.5 to 0.5)); higher = stronger / more preferred TF binding; most listed sequences are background and not binding sites
Conditions: protein concentration: 200 nM; construct: GST-DNA-binding domain
Summary of the method: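 Detection of bound protein used fluorescent anti-GST, with scans normalised by masliner. The proteins were GST-tagged yeast transcription factors applied at about 100-200 nM to universal all-10-mer Agilent arrays made double-stranded by primer extension. Each ungapped eight-base word, pooled with its reverse complement, was scored with an E-score from the Universal PBM Analysis Suite.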

Sequence | PBM E-score
ACCTAGGT | 0.0447
CCCGCACG | -0.0206
ACTAGACT | -0.123
AGTGTCAA | -0.0143
CAGATATC | -0.103
ACGGTGCC | -0.114
ACAAAGTC | -0.0664
ATGAGAAA | 0.114
TAAGACGA | -0.112
AGCGATGA | 0.0595
CAGGTTTA | 0.0837
CCGCCTGA | -0.0902
ATGAGCAT | -0.102
AATAAGCC | 0.108
ACTGGTCT | -0.117
CGCAGTTA | 0.0341
CCCTCGTA | 0.0496
CGCCCGGC | -0.0822
AGGGCGTG | -0.116
AGTATATG | 0.143
CATTGACA | -0.0517
GGAACCGA | 0.045
ACCACTGA | -0.144
ATATAGTC | 0.107
CCCCCTAC | -0.195

Sequence | PBM E-score
CCAATGAA | -0.00717
CGTGTATC | 0.0188
GGAGTACC | -0.152
ATGAAATC | 0.185
ACACCCGA | 0.16
GCTGAACC | -0.11
AAGATTCC | 0.0227
GAGCAAAC | 0.122
GAAGCGGA | 0.0896
AGGACTAT | -0.0951
GCAAACGA | 0.0921
ACGCGAGA | 0.0932
CTATCTTC | 0.0444
CATCACAG | -0.195
CCCGGCGA | -0.0972
CCCCTAAC | 0.0263
CACGAAGG | -0.177
CTGCATGA | -0.167
AACGACGT | -0.0255
ATGACCAT | -0.0934
CCAACGCG | -0.107
AACGCCAT | -0.0406
ACTCTGTA | -0.211
AAGCAATC | -0.122
AAAGTAGC | -0.00641

Sequence | PBM E-score
CATGGAAG | -0.0967
ATGACGGG | -0.0119
ATTACATG | 0.153
CGTTATCA | 0.109
CTTATGAA | 0.204
TACAGTAA | 0.0747
AACCCCCT | -0.31
ATAGGTTC | -0.0324
GTTCGAAA | 0.259
AAGTTTTA | 0.287
CGCTCTCA | -0.199
AATAGGAT | 0.217
TACGTTGA | -0.0157
CTCGTTTC | 0.242
CGAGGCAC | -0.166
CCGTAATA | 0.00265
CGAGAGAA | 0.146
GGAATTAC | 0.135
TCCCGGAA | 0.173
AAGACAGC | -0.128
ATTTTAAC | 0.19
ATTCACCC | 0.0833
AGAATCCT | -0.0558
TAGTGTCA | 0.0527
AGCTTCAA | 0.0343

Sequence | PBM E-score
CCCTTCGA | -0.167
GAAATCGA | 0.0812
ACTCGTTG | -0.066
TGTTCGAA | 0.0877
AACATGAA | 0.197
GAGGTTGC | -0.175
AGAACTCC | -0.0887
GTGGGGTA | 0.302
ACTACACA | -0.0335
AACAGGTC | -0.03
ATGAAAAC | 0.349
TGACAGAA | -0.00773
CGCGATAA | 0.147
CAGATGGA | 0.0921
AGGGGCCG | -0.0825
ATGCATTG | -0.246
CCGATAAA | 0.161
CACAGACA | -0.0505
CTCCTAAG | -0.199
GGGTGATA | 0.189
CGAGGTCC | -0.195
AAACCTCT | 0.154
ATTCCATG | 0.183
GACCATCC | -0.188
AAACTGGG | 0.0635

Sequence | PBM E-score
CTATGCCC | -0.0243
ATTACGCA | 0.038
GATATACA | 0.212
AGAGTCCG | -0.196
ACCTTGTC | -0.0492
AGAGTTCC | -0.251
ACTCCGTG | -9e-05
CCGCCATA | 0.00311
ATTCTTCC | 0.102
GCACACCA | 0.0397
CATCTCCG | 0.0711
CCCACTCC | -0.136
AAGCCACA | 0.0741
TCGCGTCA | 0.129
CCCGGAGC | 0.0174
GTCCATTA | 0.0357
AACGACCC | -0.126
GCACTATA | -0.00293
ATGTCTGC | -0.0671
AAGCTGAT | 0.139
CCTATAGA | 0.00311
CCCCGAAG | -0.0163
CGTATATA | -0.0636
CTCACAAG | -0.151
GAGATCAA | 0.0814

Sequence | PBM E-score
AAGACCAT | 0.0895
CCGGGACC | 0.0129
ATGTTTCA | 0.493
GAAGGGAC | -0.0933
AAAGACGA | 0.0361
GGATCGCC | -0.161
GACAGGTA | -0.016
AGGGAGAG | -0.0217
GGATCAAA | 0.119
GGCTACAC | -0.101
AATTTTCG | 0.128
AGGACAAG | -0.131
ACAAGTAC | 0.02
CACAGCAC | -0.191
CCTTGGTA | 0.00972
CATTGAGG | -0.103
AGCACTAA | -0.0166
AGGTAGGC | -0.159
CACGTCGA | -0.0263
AACGCTAA | -0.0143
CTTTGGTC | 0.131
CGGGATTC | 0.191
CTAAATCC | 0.0716
GCTTGTAA | 0.0486
ATCCATGG | -0.059

Sequence | PBM E-score
AGTTCTCC | -0.165
AATATTTA | 0.209
ATGCACTG | -0.0247
CTAAAAAG | 0.218
CAGTGTCG | 0.0375
GCCAAGGC | -0.198
AAATTCGA | 0.157
GGCATTGA | -0.0352
AGATCGAC | -0.078
TCCACACA | 0.134
GCAGTCAA | -0.127
AGCTGGGC | -0.161
AGCGGAAT | 0.0289
CGAACGCC | -0.222
GATCATTA | 0.0818
CCAAATGA | 0.186
CACGATAG | -0.11
ACACGGTC | -0.0854
AGTTACAG | 0.2
CCAACACC | -0.241
AAAGTGTG | 0.221
AAAACTCC | 0.0428
GTCGTAAA | 0.0308
CGTATAGC | -0.0307
AGAACAAT | 0.247

Sequence | PBM E-score
CACTACTC | 0.105
ATTGGGAG | 0.0972
ACCAAAGA | 0.158
TAGCAATA | -0.0246
GCATATCC | -0.0226
CGTCCAGA | -0.115
CAAAGATA | 0.107
TACTACCA | -0.0454
ACGTGTAC | -0.134
AGTATAAT | 0.228
CTCGCCGA | -0.0805
ATCGGATC | 0.0882
AGGCGTTA | 0.0338
CAATCCAA | 0.00782
CCGTGCAG | 0.0505
GACTACTC | -0.0788
GAAGCACC | -0.164
ATCTTGCA | 0.102
CCGGACAC | -0.0146
AATGACGA | -0.105
AGCGCTCA | -0.203
CCTTGTCA | -0.0771
AAATGTGA | 0.146
CCTGAATA | 0.177
CACACAGC | 0.00497

Sequence | PBM E-score
AATATTGC | 0.00435
CATAATAA | 0.136
AATTGCGT | 0.113
AGATACTG | -0.0238
ACTCTCAC | 0.0198
AGACGGAT | 0.0635
ATAGAAAA | 0.101
AAGCCGCT | 0.0327
CAGAGGCA | -0.161
ACCGTATA | -0.133
AGAGCAGA | -0.0287
ATATGTAC | 0.0709
CGCGCACC | 0.156
CGAATTCG | -0.27
GAACGCGA | 0.103
AAGCTTGC | -0.0199
GGACGCTA | -0.185
ACCGCGAC | 0.225
CCGTAGAA | -0.259
GGCCCATA | -0.122
GCTCAAGC | -0.184
TTAAGAAA | 0.195
AAAAATAA | 0.229
CACGTGGG | -0.129
AGAAAATA | 0.259

Sequence | PBM E-score
CCCGGTCC | -0.152
ATTCCCGG | 0.115
ACAGCGAC | -0.0562
AGGTAGAG | -0.0159
CGGCAGTA | -0.0367
TGGCCCCA | -0.094
ACTTGGGC | -0.0134
CCTAAGAG | -0.0981
AGAGAACC | -0.168
AAATCTTC | 0.0263
GAATTCCA | 0.122
TCCCAGGA | -0.198
GATAGAAA | 0.0543
ATACGGAA | 0.0484
CTAGATAG | -0.243
ACCTGCCT | -0.137
CCGATCGA | 0.0564
AGTCACGC | -0.0621
AACTATTC | 0.264
ACTCCACC | -0.0218
GGTGGTCA | -0.164
TGTGGAAA | 0.286
ATCTTTTC | 0.149
AGGCAGAG | -0.137
CCCTATTC | 0.0347

Sequence | PBM E-score
AGGAGCCG | -0.135
ATTCCCGC | 0.158
CCCGCTGA | -0.173
ACATAGCC | 0.0232
AGAGAACA | 0.0103
AAGGGGCC | -0.0465
CTGGCCAA | -0.0761
CGGCTATC | -0.174
GTTATCGA | 0.203
ACTTAAAA | 0.183
ATGCGCGC | 0.0609
ACGGTTGC | -0.234
GTATCAAA | 0.293
CCTTGGCA | -0.162
CACATTCC | -0.00353
CCCATAGG | -0.272
ACGGGAGT | -0.0255
AAGCCCTA | -0.133
CTTAACAC | -0.183
CCCTGCAA | -0.124
CAAGCGTA | -0.216
CACCTCGC | -0.139
AGTTATTG | 0.034
CGCATCTA | 0.112
CATGTCCC | -0.00788

Sequence | PBM E-score
AAATTATG | 0.168
AGAAGTAA | 0.22
ATTCTGTA | 0.0407
CGACACCC | -0.0454
ACCCGCTA | 0.146
GAGGTACC | -0.18
AAGTGGTC | -0.0758
CTGCCATC | -0.0221
AATCAGTG | -0.123
AATGATGC | 0.039
AGCAAAAC | 0.199
AGCGGATC | 0.0284
AGTTTGGG | 0.13
CGGATTGA | -0.0328
AACGTGAC | 0.0775
CGGTAGAA | -0.142
ATTGACGG | 0.00717
GATCAGCC | -0.151
TGCAATAA | 0.0549
CCGTTAAG | -0.177
CTTGTAAC | 0.218
AGGTTACG | -0.0449
CTCGAGTA | 0.0434
AGAGGTCG | -0.112
AGCTTTTC | -0.121

Sequence | PBM E-score
CGGAGGTA | -0.0544
ATGCTTTA | -0.0956
TCCTGCGA | -0.0589
GGCGCGCA | 0.183
TCGAAACA | 0.395
CTTCCAGC | -0.215
CTCCTCAG | -0.11
TCCGTCGA | 0.16
GTCATCGA | -0.173
CAGGGGCC | -0.274
ACTCGAGA | 0.0621
GCGGGCAC | 0.0726
CTATAAGA | 0.0602
GCCCTTAC | -0.176
ACCACCAG | -0.0336
ACCTGGGA | 0.0779
CAGTTTAA | 0.131
CTGACATC | 0.123
ATTTCAGC | 0.13
CTTTTGGC | -0.0551
AATGCAAC | 0.0238
TAATTCGA | 0.179
ATACTTAA | 0.166
TACGAGGA | 0.0797
AATACTTA | 0.141

Sequence | PBM E-score
CCGCAGTA | -0.0759
ACATTAGT | -0.0436
GTAAGCAA | -0.0558
ACTATAAG | 0.00946
GAGGTGGC | -0.132
GCCCCCAA | -0.0804
ACATTGGT | -0.115
GGTAGAAC | -0.101
ATGTGGGG | -0.0488
AGCTGTAG | -0.0286
CGACCGCA | -0.0229
AATGACTA | -0.0904
AAGATGAT | -0.0474
GACACGAC | 0.0724
CCTCGCTC | 0.0357
TGGTTCAA | 0.247
ACGTGACT | -0.14
CCTAGCAA | 0.00643
AATCGACT | -0.108
